In the supplement of paper PMC10126150:
Values marked as one replicate rest on one cluster of the flow cell; about a third of the high ones do not repeat.

tested on: ATP; test: switch fluorescence ratio, 500 uM ATP over buffer (Cy3 cluster intensity, sum of 5 cycles each) (fold (ratio)); higher = stronger signal-on switching upon ATP binding; sequences stand for … in TCGTCGGCAGCGTCAGATGTGTATAAGAGACAGTTTTTTTTTTTTTTTTTTTTTTTTT…TC; settings: aptamer strand: ATP DNA aptamer (quencher-CACCTGGGGGAGTATTGCGGAGGAAGG + anchor), 100 nM annealed; ATP concentration: 500 uM; one replicate
How it was run: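 Imaging in selection buffer was followed by imaging after 15 min with 500 uM ATP at 22 °C, for Cy3-labelled switching-strand clusters annealed to 100 nM quencher-labelled ATP aptamer on a modified Illumina MiSeq flow-cell. Five of these buffer/ATP cycles ran, separated by NaOH stripping and re-annealing. The fluorescence ratio per cluster is summed target-cycle over summed buffer-cycle Cy3 intensity, averaged per switch-domain sequence; clusters outside 100-1000 RFU were removed.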
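Also: ATP exposure 15 min at 22 °C before imaging.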

Row | Sequence | switch fluorescence ratio
1 | ATGCAGGGGC | 1.07
2 | GCGATGCGTC | 1.04
3 | TACTAGCCTG | 0.964
4 | CTTAAAGCTC | 1.06
5 | GAATCGGCCT | 1.04
6 | TACCTTAATG | 1.02
7 | TTCCGGGGTC | 2.23
8 | ACGTGTTTTT | 1.01
9 | ACCGTAATCT | 1.47
10 | TTGGGTGAAT | 1
11 | TAAGTAGGGA | 0.917
12 | TCTCGGACAA | 1.67
13 | CCCGATCCGT | 1.08
14 | TAGCGTGGCT | 0.983
15 | GGTGTTCCGG | 1.04
16 | CCTTATACCC | 1.14
17 | AGGCGTCTTT | 0.99
18 | TTGTACCTGC | 1.09
19 | TGTCCAGGGT | 1.57
20 | TATCGTCTCT | 1.01
21 | GGGAACCACG | 1.03
22 | GAGTGCGTTT | 0.977
23 | GCAACGAGCC | 1.74
24 | TAGTATGAAG | 1.2
25 | AGGGCAGCAC | 0.979
26 | AATGGTTTC | 0.981

Row | Sequence | switch fluorescence ratio
27 | TCGAGTACCC | 1.06
28 | ACCTCACGGT | 1.44
29 | CCGGGTCGCC | 1.01
30 | TCCTTGGCGA | 1.01
31 | AGGTAACTGC | 1.05
32 | CTAAATAGAT | 0.913
33 | TATTAATGGG | 1.04
34 | TGGTATTAGC | 1
35 | CTGGGACCCT | 1.03
36 | TACGCCGGGC | 1.05
37 | GACTCATAGG | 0.946
38 | TGGGGAGTTG | 0.954
39 | TCACGCAGTA | 1.08
40 | CGGTTTTAGA | 1.03
41 | CAAAAAGCTA | 1.03
42 | TTATACTCGT | 0.985
43 | AGGCCATGAA | 1.01
44 | TGATTACCGA | 1.05
45 | TCCGACTAA | 4.04
46 | GTTGGAAATA | 0.967
47 | CGACCAGGCG | 1.24
48 | CGACGAGTCC | 1.08
49 | ACATATAGTT | 1.01
50 | TACGAGCTAT | 1.52
51 | CCCCCGATGA | 1.52
52 | AGATGTCCGC | 1.17

Row | Sequence | switch fluorescence ratio
53 | CATTCGGTAT | 1.1
54 | CCCGGGGACG | 0.994
55 | TTTGAGATGA | 1.05
56 | TTGCTCGGAT | 0.994
57 | CGGTAATTTG | 0.979
58 | GACGTGTGCT | 0.938
59 | TGTTTCGTCT | 1.1
60 | AACTTTTGAC | 1.04
61 | GATTGTTGCA | 1
62 | TCGGAGAAAG | 1
63 | TATCTCTCG | 0.958
64 | TCGTTTTGGA | 0.981
65 | GACATGAGAC | 1.07
66 | TATGTGGACG | 0.989
67 | AGCGCCGTAG | 1.02
68 | CTAGATAGTT | 1
69 | GGGTTACAAG | 1.04
70 | TGGATGTGTC | 0.986
71 | CCTTGCCGA | 1.09
72 | GATCGTCAGG | 0.985
73 | GATGAGGCAA | 1.02
74 | AGTGAAGCGT | 1.05
75 | AAGACTCATG | 0.995
76 | CCGACCGTGG | 1.12
77 | TTGAATCCCT | 1.06
78 | CGTGCTGATT | 1

Row | Sequence | switch fluorescence ratio
79 | AAAAGTAGAG | 0.999
80 | CGGAATTTGT | 1.03
81 | GGCCGCATAA | 3.87
82 | AGAGCCG | 1.01
83 | TCGGATCAC | 1.04
84 | TTGATCTTCT | 0.968
85 | TCCCCGATGG | 1.3
86 | GCAGTAGTTC | 1.13
87 | TTCAAGTTTA | 1.03
88 | TCCTAATGA | 0.984
89 | GAGAGCCTTG | 0.971
90 | TATCTTGCTA | 0.987
91 | GAAAGGTAGA | 1.05
92 | CCAGCGAAGT | 1.08
93 | TAATACTAGG | 0.985
94 | AATAAATTTG | 1.03
95 | GGAGATTCGC | 1.02
96 | TGGATGGTCG | 0.952
97 | CTACGGACGG | 1.49
98 | GTGAGGAG | 0.918
99 | TGCTGCAAGA | 1.07
100 | GGAGGGGAGA | 0.985
101 | AATTACTATT | 1.03
102 | TTGCCCGTGT | 0.957
103 | AGATCAAATG | 1.01
104 | CCGTGCATAG | 2.45

Row | Sequence | switch fluorescence ratio
105 | TGTGCGGGTG | 1.09
106 | CACGGATTCC | 0.994
107 | CGGAAATAAC | 1.09
108 | GGCAGGTCGT | 0.996
109 | AGTGAAGAG | 0.997
110 | TTTACGCAAA | 1.22
111 | AGGGAAGAC | 1.05
112 | AGTAATTCA | 0.977
113 | AAGAGATTCA | 0.985
114 | AATACTGGCT | 1.09
115 | CTCGTCACCA | 1.07
116 | TTCTTAACCA | 1
117 | GGTATGTCAA | 0.964
118 | CAGGACAACT | 1.08
119 | CACCTGTAGC | 1.15
120 | TCCTGCGGCT | 1.01
121 | ACCTTGAGAA | 1
122 | CAAAAGGAGA | 0.994
123 | CCCGACAAAT | 1.2
124 | GATCATAACT | 1.03
125 | ATGAGAGGGT | 1
126 | TCTTAGAGTG | 1.02
127 | GGCGTCGCAA | 1.21
128 | GAGATTGTCC | 1.05
129 | ATGAGCGCTC | 1.03
130 | ATAGACAATA | 1.08

Row | Sequence | switch fluorescence ratio
131 | TAGTTGAGAG | 1.01
132 | CACATGCCAG | 0.912
133 | TTGCGATGCT | 1.24
134 | ATTGTAGGTA | 0.971
135 | TATTGGTCCT | 0.959
136 | AACCAACCTA | 1.1
137 | CTGTCGATGG | 0.983
138 | TTCATTGGCC | 0.98
139 | AAGGAGGTCT | 0.971
140 | TGCCTGTC | 1.49
141 | CTCGCCTGGG | 1.59
142 | AGGTGTGGAG | 1.02
143 | GATCGTTTG | 1.01
144 | TCGGTAGTAA | 1.1
145 | TGTCTTTGAA | 0.965
146 | TGATTATTCT | 1.05
147 | TCACTGGGAT | 1.01
148 | TCCTTGACGT | 1.02
149 | CAATGGTCGC | 0.978
150 | CGGTTCCGTT | 0.981
151 | TGGGGATGCT | 0.958
152 | AATTTCGTGT | 0.975
153 | GATGTATCTT | 0.976
154 | GCCCTATGA | 1.02
155 | CGCATGGGGC | 1.32
156 | ACGTGGTCGC | 0.919

Row | Sequence | switch fluorescence ratio
157 | TAAAGCGGGA | 0.973
158 | TTTTCCAAT | 1.06
159 | CAAACATAAC | 1.14
160 | TAGAAAGGAT | 0.943
161 | ACTTGTCGT | 1.03
162 | ATCCTTTGGC | 1.03
163 | AGCGGCGACG | 0.93
164 | TGTTTTTGAT | 0.945
165 | TCGAAATAGA | 0.971
166 | CAATCGAAAG | 1.03
167 | TAAGTCTAGT | 0.975
168 | AAGTCCCTAG | 0.986
169 | GGAGTGTAAG | 1.03
170 | TCTAGGCCGG | 0.962
171 | ATTGCTCTTG | 0.993
172 | CTCTCGGGTA | 1.03
173 | GGTGATTTTC | 1.02
174 | GTTCTCG | 0.972
175 | GTGGATAATA | 0.946
176 | GTTGGGGA | 1.03
177 | ACAGTAAAAT | 0.974
178 | GACGCCGGG | 1.04
179 | GTGAGATTGG | 1
180 | GGCCACTGGG | 1.09
181 | TGATGCTGAG | 1
182 | CGAAGTGCGG | 0.97

Row | Sequence | switch fluorescence ratio
183 | ACCAGTGTGG | 1.06
184 | TTCTATAGGG | 0.993
185 | CTGTTTCACG | 0.972
186 | GCTTCAGGAA | 1.04
187 | TTCTCGACGT | 1.03
188 | GGTAATGAGA | 1.11
189 | AAAGCCGGCA | 1.01
190 | GGTGTGGCCA | 0.962
191 | TATACAGTGG | 1.07
192 | TATTAACCTC | 1.01
193 | GGATGCTAC | 1.31
194 | AATACTACAT | 1.01
195 | CACTTCTAGC | 0.995
196 | TCACGATCCA | 1.02
197 | TTTTCCGTGT | 0.987
198 | ATGCGCCGCG | 1.02
199 | TACTAACCGA | 1.19
200 | TGGGATAGGG | 0.98
201 | CAGGCCCGTG | 0.971
